Sequences and labels used below:
B1: tRNA (parent)
chain: CUCUCGGUAGCCAAGUUGGUUUAAGGCGCAAGACUUUAAUUUAUCACUACGAAAUCUUGAGAUCGGGCGUUCGACUCGCCCCCGGGAGAUUUUUUCCUCGAGCAA

Variants at the background level are over-represented here. Where only a bound is given, the exact number is not on record here.

The variants in the data set derive from B1. The data set can be described thus: nonsense suppression (GFP-seq) (ratio to wild type); higher = more function; SUP4oc tRNA, yeast GFP reporter sort-seq. In short, it runs like this:
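Each variant's nonsense suppression (GFPSEQ) is a cell-share-weighted bin median GFP/RFP relative to the unmutated parent tRNA. Yeast with genome-integrated tRNA variants from a ~3% random-mutation library, a galactose-driven GFP ochre reporter and RFP were grown in raffinose/galactose medium with 80 mg/L adenine, then sorted into GFP/RFP bins for Illumina sequencing. Variants needed ≥100 reads and ≥30 cells.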
Turning to C3G A33C U57C, the nonsense suppression was no more than 0.026.
Regarding G6C U17C, the nonsense suppression is no more than 0.026.
The result for G26U G66U reads no more than 0.026; that for G32U U70A C75A, no more than 0.026.
Turning to U22A A24C G65C, the nonsense suppression is no more than 0.026.
With C12U G25A G61C, the nonsense suppression stood at 0.823.
With U4A C77U A89U, the nonsense suppression is no more than 0.026.
The result for G18A A30G C79G reads no more than 0.026.
For the variant U16A A62G C75A C80G, the nonsense suppression is no more than 0.026.
The result for U8C A23U U58G G85C reads no more than 0.026; that for C75U C82A, no more than 0.026; that for G18A U21A U22G, no more than 0.026.
Turning to A13G C29U G32A G66A C83U, the nonsense suppression was no more than 0.026.
In the case of A9G C12G C34G G86C, the nonsense suppression was no more than 0.026.
For C29G A30C C34A, the nonsense suppression was no more than 0.026.
Regarding C11G U57G C77G, the nonsense suppression was no more than 0.026.
Turning to C12U U63C G66C, the nonsense suppression is no more than 0.026.
To G19U C29A G59A belongs no more than 0.026; to G15U A54U G59C, no more than 0.026.
The result for U17A U71A reads no more than 0.026; that for U21A G26U A31C G32U, no more than 0.026.
To C12G U20C C27G U58G G59A belongs no more than 0.026; to U4A A30U C77G, no more than 0.026.
In the case of U8C G69A G85U, the nonsense suppression was no more than 0.026.
As to G19U U22C U70C C79U, the nonsense suppression was no more than 0.026.
The result for G15A U22G G86C reads no more than 0.026; that for U17A G19U U22C G85U, no more than 0.026.
As for A9U G10C A31G G88C, the nonsense suppression is no more than 0.026.
Regarding A9U C29A G67A A74G, the nonsense suppression was no more than 0.026.
The result for G7U C68A reads no more than 0.026.
Consider C3U G10C U16G C27G C29U, for which the nonsense suppression is no more than 0.026.
Regarding G25U G59C, the nonsense suppression was no more than 0.026.
For C1G U8A C27G, the nonsense suppression was no more than 0.026.
To U2G A33U C56A belongs no more than 0.026; to A74C C77G, no more than 0.026; to C27A C72A, no more than 0.026.
The result for U2A G25U A31G A33G C68U reads no more than 0.026; that for G26U A30C, no more than 0.026.
Take U8G G85A: the nonsense suppression is no more than 0.026.
To G19U U35G G84C belongs no more than 0.026; to U4A U57A G86C, no more than 0.026; to C29A U35C U70C U76C, no more than 0.026.
As for A13U A62G A89U, the nonsense suppression is no more than 0.026.
The result for U57A U58C G84C reads no more than 0.026; that for C3G U8G U35A G86C, no more than 0.026.
Take A30U C34U: the nonsense suppression is no more than 0.026.
To C29A A31U belongs no more than 0.026; to U35G C56A U57A, no more than 0.026; to G28U C34A C77G, no more than 0.026.
To A9C G26A A31G A54G G88U A89G belongs no more than 0.026; to U16C U63C C79U, 0.0784; to C12A A24U G69C A87G, no more than 0.026.
The result for C3A G25C A60C U76A reads no more than 0.026.
Turning to G32A A54U C81A, the nonsense suppression was no more than 0.026.
To A30U C79U belongs 0.144; to U17G A54G U57C, no more than 0.026; to C11G A31G G69C U70C G86A, no more than 0.026.
G25U C29U U35C C77U: the nonsense suppression is no more than 0.026.
The result for U4G U57G A60U reads no more than 0.026; that for U55G U63G U71C G88A, no more than 0.026; that for A33U U63A C72U, no more than 0.026.
To C5U C11A U20A C27G C34U U55G belongs no more than 0.026; to C3G G67U C72G, no more than 0.026.
To G6C C80U belongs no more than 0.026.
Consider C81A G88A, for which the nonsense suppression is no more than 0.026.
To C5A U55C U76G belongs no more than 0.026; to U63A G67C G86C, no more than 0.026.
To A23C A31C belongs no more than 0.026; to C56U G84A, no more than 0.026; to G19U G25U C83U, no more than 0.026.
The result for C1U A54C reads no more than 0.026; that for C1U G19C G88C, no more than 0.026; that for U21A G61C U63C G66C G85C, no more than 0.026.
For G86A A89G, the nonsense suppression is no more than 0.026.
To C1A C3G U58A C68G belongs no more than 0.026; to C5G G19U U63G G66C, no more than 0.026.
The result for U16A U35A G85A reads no more than 0.026.
Turning to U2G G7C U17A, the nonsense suppression was no more than 0.026.
In the case of C1U A33G, the nonsense suppression is no more than 0.026.
To C1U G6A belongs no more than 0.026; to A23G C56A U63G, no more than 0.026; to G6U A23U U57G, no more than 0.026.
U17C G73A: the nonsense suppression worked out at 0.899.
For the variant A62G U70C A74C, the nonsense suppression was no more than 0.026.
To G15C G18A A30G belongs no more than 0.026.
In the case of A54U G59C C64A A74G G84U, the nonsense suppression was no more than 0.026.
Turning to U8G U58G U71A, the nonsense suppression is no more than 0.026.
As to G10A G15U A23U G25A G85C, the nonsense suppression was no more than 0.026.
To C34A A87C belongs no more than 0.026; to U21C A30C A54U G59C U71G, no more than 0.026; to U4A A14U A30C A31C, no more than 0.026.
Take G19A G32A: the nonsense suppression is no more than 0.026.
To A24C A60U U63A belongs 0.112.
Regarding A23C G61A, the nonsense suppression is no more than 0.026.
To C3U G6U G18A G32A belongs no more than 0.026.
To G32C G67U belongs no more than 0.026; to U20C G26C, no more than 0.026.
The result for C12U C56A G59A reads no more than 0.026; that for G10A G66C, no more than 0.026.
With A30G A31U G73U, the nonsense suppression is no more than 0.026.
The result for C5G G32C reads no more than 0.026.
To G6A C81G belongs no more than 0.026; to U22C G73A C80U, 0.0265; to A31U U71C C72G, no more than 0.026.
The result for A13C G65C reads no more than 0.026; that for C1U G28A A62U, no more than 0.026.
Take C3A A9G C29U U76G G88C: the nonsense suppression is no more than 0.026.
A31G C83A: the nonsense suppression came out at 0.0481.
The result for G10U G15A reads no more than 0.026; that for G28C U70G, no more than 0.026.
The result for G19C U70A reads no more than 0.026; that for G6A U22C A30C A89G, no more than 0.026; that for C12G C72U, no more than 0.026.
The result for C75U reads 0.972; that for C3A A13U G26C G32U C64G, no more than 0.026; that for G7C G18C G61C, no more than 0.026.
Regarding G15A G61C, the nonsense suppression amounted to 0.034.
The result for A54G U70A A89G reads no more than 0.026.
For G6C G66C C81A, the nonsense suppression was no more than 0.026.
A13C C27U: the nonsense suppression was determined as 0.0494.
To C1U A13G belongs no more than 0.026; to A33U U55A G78U C83G, no more than 0.026; to C11U U76G, no more than 0.026.
To A23U C27A G32U A62G A87U A89G belongs no more than 0.026; to A14C C27G G28C, no more than 0.026; to C1G C12U G15U A30C A31C, no more than 0.026.
The result for U4G U16G A24U C77G reads no more than 0.026; that for G19A A23G, no more than 0.026; that for C1A U35A G73U G84C, no more than 0.026.
Consider C3G A9U C68U G88C, for which the nonsense suppression was no more than 0.026.
In the case of C5U C29A G59C, the nonsense suppression was no more than 0.026.
C27A C75A C83U: the nonsense suppression is no more than 0.026.
Turning to G7U U21G A60C G84C, the nonsense suppression is no more than 0.026.
The result for C27G A30G A62C reads no more than 0.026.
As for C29G C34G, the nonsense suppression was no more than 0.026.
Consider C56U U76C, for which the nonsense suppression is no more than 0.026.
To C64G G67A G78A belongs no more than 0.026.
To G25C C34A A87G belongs no more than 0.026.
As to A74G G78A, the nonsense suppression is no more than 0.026.
For the variant C3A A24G A33G, the nonsense suppression was no more than 0.026.
Turning to C3G C11G C34U C77A G84C, the nonsense suppression is no more than 0.026.
Regarding G25U G85A, the nonsense suppression is no more than 0.026.
To C1A G15U A74C belongs no more than 0.026; to A23G C56U, no more than 0.026; to A33G G65A A87C, no more than 0.026.
As for G10C U57C C64A C72U, the nonsense suppression was no more than 0.026.
In the case of U22G C56U C72A, the nonsense suppression is no more than 0.026.
Consider A31C U55C C82U, for which the nonsense suppression was no more than 0.026.
The result for C3G U20A A60C reads no more than 0.026; that for U55C G86C, 0.164; that for A23G A33U A87G, no more than 0.026.
The result for C12A U17C G66C reads no more than 0.026; that for G6U G19A A30U, no more than 0.026; that for U16A U55A, no more than 0.026.
In the case of C5G U22C C29A, the nonsense suppression was no more than 0.026.
The result for G18C C29U C82G reads no more than 0.026.
The result for A9U G32U C34A reads no more than 0.026; that for U8A G88C, no more than 0.026.
The result for C11A U21G G88A reads no more than 0.026.
Turning to G15C A62G G66U G78A A87G, the nonsense suppression is no more than 0.026.
For the variant U2G A60G, the nonsense suppression was no more than 0.026.
To A9U C12G C77G C81A G84U G85U belongs no more than 0.026; to C3U A23U A74C, no more than 0.026; to C5G G15C G61A C83U, no more than 0.026.
To C27G U35G A62C belongs no more than 0.026; to U8C G28C U58C, no more than 0.026; to G15U G66C G85U, no more than 0.026.
